US7517874B2 (priority 2007, dated 2009)

Biological target: human CB2 receptor (hCB2) (Homo sapiens, UniProt P34972)
Experiment: cell-based
Format: cell-based
Conditions: for +/− HCB2: agonist or inverse agonist at hCB2

human CB2 receptor (hCB2), sequence (P34972 whole entry): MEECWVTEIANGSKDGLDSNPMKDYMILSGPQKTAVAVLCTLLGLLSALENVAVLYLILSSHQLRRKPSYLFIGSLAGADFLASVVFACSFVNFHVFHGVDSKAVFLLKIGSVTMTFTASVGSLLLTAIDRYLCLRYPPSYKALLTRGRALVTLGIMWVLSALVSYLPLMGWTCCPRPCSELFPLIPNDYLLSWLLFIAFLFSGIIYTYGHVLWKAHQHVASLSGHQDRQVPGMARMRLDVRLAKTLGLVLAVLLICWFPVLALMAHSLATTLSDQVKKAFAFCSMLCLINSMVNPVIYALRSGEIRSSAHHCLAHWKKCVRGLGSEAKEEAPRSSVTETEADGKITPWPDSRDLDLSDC

| Structure (SMILES) | +/− HCB2 | EC50 [µM] |
| --- | --- | --- |
| CNC(=O)[C@@H](NC(=O)c1nc(-c2ccc(OC)cc2F)n2c1CN(C)CCC2)C(C)(C)C [Compound 358] | + |  |
| CC(C)C[C@H](NC(=O)c1nc(C2CCCCC2)n2c1CN(C)CCC2)C(N)=O [Compound 570, (S)-N-(1-amino-4-methyl-1-oxopentan-2-yl)-3-cyclohexyl-8-methyl-6,7,8,9-tetrahydro-5H-imidazo[1,5-a][1,4]diazepine-1-carboxamide] | + |  |
| CC(C)(C)CNC(=O)c1nc(-c2ccccc2)n2c1CN(S(=O)(=O)c1ccc(F)cc1)CC2 [Compound 103, 7-(4-fluorophenylsulfonyl)-N-neopentyl-3-phenyl-5,6,7,8-tetrahydroimidazo[1,5-a]pyrazine-1-carboxamide] |  | > 10 |
| CNC(=O)[C@@H](NC(=O)c1nc(-c2ccccc2C#N)n2c1CN(C)CC2)C(C)(C)C [Compound 259, (S)-3-(2-cyanophenyl)-N-(3,3-dimethyl-1-(methylamino)-1-oxobutan-2-yl)-7-methyl-5,6,7,8-tetrahydroimidazo[1,5-a]pyrazine-1-carboxamide] |  | > 10 |
| CNC(=O)[C@@H](NC(=O)c1nc(-c2cc(F)cc(F)c2)n2c1CN(C)CC2)C(C)(C)C [Compound 262, (S)-3-(3,5-difluorophenyl)-N-(3,3-dimethyl-1-(methylamino)-1-oxobutan-2-yl)-7-methyl-5,6,7,8-tetrahydroimidazo[1,5-a]pyrazine-1-carboxamide] | + |  |
| CN1CCn2c(-c3ccc(Cl)cc3F)nc(C(=O)N3CCC4(CC3)C(=O)NCN4c3ccccc3)c2C1 [Compound 214, 8-(3-(4-chloro-2-fluorophenyl)-7-methyl-5,6,7,8-tetrahydroimidazo[1,5-a]pyrazine-1-carbonyl)-1-phenyl-1,3,8-triazaspiro[4.5]decan-4-one] |  | > 10 |
| CC(C)(C)CNC(=O)c1nc(-c2ccccc2)n2c1CN(S(=O)(=O)c1ccccc1)CC2 [Compound 104, N-neopentyl-3-phenyl-7-(phenylsulfonyl)-5,6,7,8-tetrahydroimidazo[1,5-a]pyrazine-1-carboxamide] | − |  |
| CNC(=O)[C@@H](NC(=O)c1nc(-c2ccc(C(C)=O)cc2)n2c1CN(C)CCC2)C(C)(C)C [Compound 415, (S)-3-(4-acetylphenyl)-N-(3,3-dimethyl-1-(methylamino)-1-oxobutan-2-yl)-8-methyl-6,7,8,9-tetrahydro-5H-imidazo[1,5-a][1,4]diazepine-1-carboxamide] | + |  |
| CNC(=O)[C@@H](NC(=O)c1nc(C2=CCC3(CC2)OCCO3)n2c1CN(C)CCC2)C(C)(C)C [Compound 448, (S)-N-(3,3-dimethyl-1-(methylamino)-1-oxobutan-2-yl)-8-methyl-3-(1,4-dioxaspiro[4.5]dec-7-en-8-yl)-6,7,8,9-tetrahydro-5H-imidazo[1,5-a][1,4]diazepine-1-carboxamide] | + |  |
| CNC(=O)[C@H](CC(C)C)NC(=O)c1nc(-c2cccc(F)c2)n2c1CN(C)CCC2 [Compound 531, (S)-3-(3-fluorophenyl)-8-methyl-N-(4-methyl-1-(methylamino)-1-oxopentan-2-yl)-6,7,8,9-tetrahydro-5H-imidazo[1,5-a][1,4]diazepine-1-carboxamide] | + |  |
| CNC(=O)[C@H](CC(C)C)NC(=O)c1nc(-c2ccc(F)c(F)c2)n2c1CN(C)CC2 [Compound 278, (S)-3-(3,4-difluorophenyl)-7-methyl-N-(4-methyl-1-(methylamino)-1-oxopentan-2-yl)-5,6,7,8-tetrahydroimidazo[1,5-a]pyrazine-1-carboxamide] | + |  |
| CNC(=O)[C@@H](NC(=O)c1nc(-c2ccc(F)c(C)c2)n2c1CNCC2)C(C)(C)C [Compound 7, (S)-N-(3,3-dimethyl-1-(methylamino)-1-oxobutan-2-yl)-3-(4-fluoro-3-methylphenyl)-5,6,7,8-tetrahydroimidazo[1,5-a]pyrazine-1-carboxamide] | + |  |
